Results: PubChem BioAssay AID2675 (National Center for Advancing Translational Sciences (NCATS), 2010)
In all, about 280,000 compounds went through this assay and about 100 (0.036%) were called active. The shares of active, inactive and inconclusive entries below differ from those in the screen. Calls come from the whole dose curve; as a rule, active = well fitted inhibition curve with a large enough effect in the signal ratio, with a control signal flat (not every such curve was filed as active); inconclusive = small, poorly fitted or top-dose-only effect, or effect the other way, or a change in a side signal; inactive = no such curve, though single readings can be large or run the other way; the % refers to the signal ratio. Potencies beside an inconclusive call are fits to weak or partial responses and may not hold up. A note “side channel” means that the fit belongs to a control or component signal, not to the main read-out.

Target: Muscleblind-like protein 1 (Homo sapiens) (UniProt Q9NR56)
Chain of UniProt Q9NR56 (Q9NR56 whole entry, looked up): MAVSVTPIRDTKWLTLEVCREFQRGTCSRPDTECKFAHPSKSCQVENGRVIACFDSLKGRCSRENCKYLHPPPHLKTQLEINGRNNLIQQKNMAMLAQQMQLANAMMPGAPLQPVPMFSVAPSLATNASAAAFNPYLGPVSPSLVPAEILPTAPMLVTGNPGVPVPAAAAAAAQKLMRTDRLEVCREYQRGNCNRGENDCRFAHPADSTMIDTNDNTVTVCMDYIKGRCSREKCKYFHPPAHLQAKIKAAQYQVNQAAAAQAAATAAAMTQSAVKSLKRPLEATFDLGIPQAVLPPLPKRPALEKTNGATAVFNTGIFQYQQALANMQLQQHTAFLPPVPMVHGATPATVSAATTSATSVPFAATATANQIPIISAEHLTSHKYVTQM
Assay: qHTS Assay for Inhibitors of MBNL1-poly(CUG) RNA binding
Details: TR-FRET MBNL1-His/biotin-(CUG)12 binding, 665/545 ratio; series mostly up to 57.5 µM
Summary of the method: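 His-tagged MBNL1 binding to biotinylated (CUG)12 RNA was measured by TR-FRET using terbium anti-His antibody (0.055 ng/ul final) and streptavidin-XL665 (5 nM final). Compounds were titrated 92 nM to 58 uM; 60 min at room temperature.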
Potency is the fitted concentration of half-maximal effect; tags give direction and shape of the fitted curve or compound fluorescence and quenching.

Structure (SMILES) | Potency
Cc1ccc(C(=O)N/C(=C/c2cccs2)C(=O)NCCCn2ccnc2)cc1 | inconclusive: 25.1 µM [quencher, side channel, single point]
CC1Cc2cc(/C(O)=C3/C(=O)C(=O)N(Cc4cccnc4)C3c3cccc(O)c3)ccc2O1 (configuration not stated) | inconclusive: 31.6 µM [quencher, single point]
COc1cc(/C=C2\SC(=S)N(NC(=O)c3ccccc3O)C2=O)ccc1O | inconclusive: 20 µM [quencher, side channel, partial curve]
CCCc1cc(C(=O)Nc2ccc(C(=O)c3ccccc3)cc2)n(C)n1 | inactive
Cc1cc(C(=O)N/N=C/c2ccc(-c3ccc([N+](=O)[O-])cc3Cl)o2)n[nH]1 | inconclusive: 15.8 µM [quencher, side channel, partial curve]
COc1ccc([C@H]2[C@H](C(=O)C(C)(C)C)N3N=Cc4ccccc4C3[C@]23N=C(c2ccccc2)OC3=O)cc1OC (some centres not stated) | inactive
CN(C(=O)CN(c1ccccc1)S(=O)(=O)c1ccc(F)cc1)C1CCS(=O)(=O)C1 (configuration not stated) | inactive
O=C(Nc1ccc(F)c(Cl)c1)Nn1cnnc1 | active: 39.8 µM
c1ccc2c(c1)oc1c(NCCN3CCOCC3)ncnc12 | inactive
COc1ccccc1NC(=O)Cn1nnc2sc3c(c2c1=O)CC(C)(C)OC3 | inconclusive: 12.6 µM [quencher, side channel, partial curve]
CCN(CC)CCN(C(=O)c1ccc([N+](=O)[O-])cc1)c1nc2c(OC)cccc2s1 | inconclusive: 31.6 µM [quencher, side channel, partial curve]
O=C(CNC(=O)c1cccc(OC(F)F)c1)OCc1cc(=O)n2cc(Br)ccc2n1 | inconclusive: 14.1 µM [quencher, side channel, partial curve]
CSc1nc(Oc2ccc(=O)n(C)n2)nc(N(C)C)n1 | inactive
COc1ccc(Nc2ncc(C(=O)N3CCN(c4ccc(F)cc4)CC3)c3ccccc23)cc1 | inactive
Cc1ccc(-c2cc(-c3ccc(F)cc3)c(C#N)c(N)n2)o1 | inconclusive: 6.31 µM [quencher, side channel, full curve]
COC(=O)c1[nH]c(=O)c2ccccc2c1O | inconclusive: 50.1 µM [inhibitor, single point]
CCOc1ccc(CNCc2cccnc2)cc1 | inconclusive: 0.562 µM [fluorescent, side channel, full curve]
O=C(NC1CC1)C1CC(=O)N(c2cccc(Cl)c2)C1 (configuration not stated) | inconclusive: 15.8 µM [quencher, side channel, partial curve]
COCc1cc(C)nc(OCC(=O)N/N=C/c2ccc(OC)c(O)c2)c1C#N | inconclusive: 39.8 µM [quencher, side channel, single point]
COCCNCCCOc1ccc(C)cc1Br | inactive
Cc1ccc(NC(=O)CN2CCC(C(N)=O)CC2)cc1[N+](=O)[O-] | inconclusive: 15.8 µM [quencher, partial curve]

Structure (SMILES) | Potency
O=C(Cc1csc(Nc2nc(=S)[nH]c3ccccc23)n1)NCc1cccc(Cl)c1 | inactive
O=C(Nc1nccs1)c1cnccn1 | inactive
CN1C(=O)c2cccc3c(S(=O)(=O)N4CCCC4C(=O)O)ccc1c23 (configuration not stated) | inconclusive: 25.1 µM [quencher, side channel, partial curve]
CCOC(=O)c1c[nH]c2c(C)ccc(Cl)c2c1=O | inactive
C/C(=N\NC(=O)c1ccccc1-n1cccc1)C1CC1 | inactive
O=C1NC(=O)C(Cc2cccc(Oc3ccccc3)c2)S1 (configuration not stated) | inactive
CCN1C(=O)c2cccc3c(NC(=O)c4ccc(S(=O)(=O)N(C)C)cc4)ccc1c23 | inconclusive: 14.1 µM [quencher, side channel, partial curve]
Cc1nnc(SCC(=O)Nc2ccc([N+](=O)[O-])cc2)n1C | inconclusive: 7.94 µM [quencher, side channel, partial curve]
CC1CN(C(=S)NC(=O)c2cccc([N+](=O)[O-])c2)CC(C)O1 (configuration not stated) | inconclusive: 31.6 µM [quencher, side channel, single point]
CC#CC[N+](C)(C)CCCCCCCCCCCC | inactive
O=C(N[C@H]1CC1c1ccccc1)c1ccc([N+](=O)[O-])cc1 (some centres not stated) | inconclusive: 17.8 µM [quencher, side channel, partial curve]
Cc1cccc(OCC(=O)NNC(=O)c2cc3ccccc3oc2=O)c1 | inconclusive: 15.8 µM [quencher, partial curve]
O=C(CNC(=O)c1ccc(Br)o1)NCc1cccc(Cl)c1 | inconclusive: 35.5 µM [quencher, side channel, partial curve]
CCC(C(=O)Nc1cccnc1)c1ccccc1 (configuration not stated) | inactive
CSCC(O)Cn1[nH]c(=O)c2cc(Cl)c(Cl)cc2c1=O (configuration not stated) | inconclusive: 5.01 µM [fluorescent, full curve]
O=C(O)COc1ccccc1/C=C1\SC(=O)N(Cc2ccc(F)cc2)C1=O | inconclusive: 31.6 µM [quencher, side channel, single point]
N#Cc1ccc(NCCc2ccccn2)c([N+](=O)[O-])c1 | inconclusive: 8.91 µM [quencher, side channel, partial curve]
CC(C)(C)NS(=O)(=O)c1ccc(N2C(=O)c3ccccc3C2=O)cc1 | inconclusive: 15.8 µM [quencher, side channel, partial curve]
c1ccc2c(NC3=NCCCCS3)cccc2c1 | inconclusive: 3.55 µM [quencher, side channel, single point]
O=C(O)c1ccccc1-c1ccccc1C(=O)Nc1cccc(Br)c1 | inconclusive: 7.08 µM [fluorescent, side channel, single point]
O=C(CCCN1C(=O)/C(=C/c2cccc(Br)c2)SC1=S)NCCCN1CCOCC1 | inconclusive: 25.1 µM [quencher, side channel, partial curve]

Structure (SMILES) | Potency
CN(C)Cc1c(O)ccc2c1O/C(=C\C=C\c1ccccc1)C2=O | inconclusive: 10 µM [quencher, side channel, partial curve]
O=C(c1ccc(N2C(=O)c3ccccc3C2=O)cc1)N1CCCCC1 | inconclusive: 14.1 µM [quencher, partial curve]
O=C(c1ccc2c(c1)OCO2)C1CCCN(Cc2ccc3nsnc3c2)C1 (configuration not stated) | inconclusive: 17.8 µM [quencher, side channel, partial curve]
COc1cc2c(cc1OC)C1Cc3ccc(OC)c(OC)c3CN1CC2 (configuration not stated) | inconclusive: 8.91 µM [quencher, side channel, partial curve]
O=C(COc1ccccc1C(=O)NCC1CCCO1)Nc1ccc(Cl)cc1Cl (configuration not stated) | inconclusive: 35.5 µM [fluorescent, side channel, single point]
CCCNc1nc(Cl)nc(Nc2ccc(Cl)cc2)n1 | inconclusive: 1.78 µM [quencher, side channel, full curve]
COc1cc(NC(=O)c2ccco2)c(OC)cc1NC(=O)c1cc(OC)c(OC)c(OC)c1 | inconclusive: 100 µM [inhibitor, single point]
Cc1cccc(NC(=O)CSc2ncnc3c2oc2ccccc23)c1 | inconclusive: 28.2 µM [fluorescent, side channel, single point]
O=C(NCCC1CC1(Cl)Cl)c1ccc([N+](=O)[O-])cc1 (configuration not stated) | inconclusive: 28.2 µM [quencher, side channel, partial curve]
Cc1cccc(N=Cc2cc3c(cc2[N+](=O)[O-])OCO3)c1 | inconclusive: 14.1 µM [quencher, side channel, partial curve]
COC(=O)c1ccc(Oc2nc(C)cc(Oc3ccccc3)n2)cc1 | inconclusive: 7.08 µM [quencher, side channel, single point]
COc1ccc(-c2nc(CCNS(=O)(=O)c3ccc4c(c3)OCCO4)cs2)cc1 | inconclusive: 31.6 µM [quencher, side channel, single point]
Oc1ccc(/C=C/c2cc(O)cc(O)c2)cc1 | inconclusive: 39.8 µM [quencher, side channel, partial curve, poor fit]
COc1ccc(/C=C2\SC(=O)N(CC(=O)NC3CCS(=O)(=O)C3)C2=O)cc1 (configuration not stated) | inconclusive: 2 µM [quencher, side channel, full curve]
CC(=O)N(Cc1c(C#N)c2ccccc2n1C)c1ccccc1 | inconclusive: 5.01 µM [quencher, side channel, single point]
O=[N+]([O-])c1ccc(S(=O)(=O)NCC2COc3ccccc3O2)cc1 (configuration not stated) | inconclusive: 35.5 µM [quencher, side channel, single point]
Cc1ccc(/C=N/N=C2/NC(=O)CS2)o1 | inconclusive: 39.8 µM [quencher, side channel, single point]
O=[N+]([O-])c1cccc(C2=NCCS2)c1 | inconclusive: 25.1 µM [quencher, side channel, partial curve]
COc1ccc(N=N/C(C(C)=O)=C(/C)O)cc1 | inconclusive: 17.8 µM [quencher, side channel, partial curve]
CCOc1cc(C(=O)Nc2ccc([N+](=O)[O-])cn2)cc(OCC)c1OCC | inconclusive: 5.62 µM [quencher, side channel, single point]
